The supplement of paper PMC12217912
The other results are listed elsewhere or left out. The full chains were built here from the parent and the listed change. Values near 0.05 are background.

B1: TEV protease; numbered along this chain (parent)
chain: MGESLFKGPRDYNPISSSICHLTNESDGHTTSLYGIGFGPFIITNKHLFRRNNGTLVVQSLHGVFKVKDTTTLQQHLVDGRDMIIIRMPKDFPPFPQKLKFREPQREERICLVTTNFQTKSMSSMVSDTSCTFPSGDGIFWKHWIQTKDGQCGSPLVSTRDGFIVGIHSASNFTNTNNYFTSVPKNFMELLTNQEAQQWVSGWRLNADSVLWGGHKVFMVKPEEPFQPVKEATQL

Variants of: B1
Experiment: raw area under fraction-flipped curve 0-4 h after induction (AUC4h, not background-subtracted), DNA-recorder readout of cleavage of the substrate (dimensionless); higher = more cleavage of the substrate by the protease variant
Settings: temperature: 34 °C; time window: 0-4 h after rhamnose induction
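Further: Bxb1 expression induced with 0.2% (w/v) L-rhamnose at OD600 near 0.5, cultures sampled hourly, flipped fraction per protease–substrate barcode pair counted by paired-end Illumina sequencing.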

Variant | area with substrate ENLYFFS | area with substrate ENLYFIS | area with substrate ENLYFMS | area with substrate ENLYFPS | area with substrate ENLYFRS | area with substrate ENLYFTS | area with substrate ENLYFWS | area with substrate ENLYFYS | area with substrate ENLYFSS | area with substrate ENLYFNS
T174F | 0.0443 | 0.0439 | 0.0487 | 0.0608 | 0.0713 | 0.058 | 0.0626 | 0.0606 |  | 
S171I |  |  |  |  | 0.0588 |  |  |  | 0.0564 | 
F180S | 0.0541 | 0.0525 |  |  |  |  |  |  |  | 0.0377
Q198G | 0.0564 |  | 0.0575 | 0.0641 | 0.0268 | 0.0669 | 0.0763 | 0.0266 |  | 0.05
Q198P | 0.0699 |  |  |  |  | 0.055 | 0.0579 |  | 0.0635 | 
M188R | 0.0738 | 0.0484 |  | 0.0571 | 0.0588 | 0.0452 |  | 0.0654 |  | 
N116W |  |  |  | 0.0598 | 0.0622 | 0.057 |  | 0.0484 |  | 
N116T | 0.0491 |  |  | 0.0572 |  |  |  |  | 0.0625 | 
H76G | 0.0747 | 0.0576 | 0.0669 |  | 0.0595 |  |  |  |  | 
G35D |  | 0.0424 | 0.0338 |  | 0.0367 | 0.0331 | 0.0345 |  |  | 
G35I |  |  |  |  |  |  |  |  |  | 0.0479
T129H |  | 0.0436 | 0.0611 | 0.0648 | 0.0628 |  |  |  |  | 
F101S |  |  | 0.0583 | 0.0555 |  |  |  |  |  | 
G8L | 0.0556 | 0.0675 | 0.0596 | 0.0688 |  |  |  |  |  | 
V165M | 0.0608 |  | 0.0632 |  |  |  |  |  |  | 
V78I |  |  |  |  | 0.0656 | 0.0571 | 0.047 |  |  | 0.0726
I85H | 0.054 | 0.0518 | 0.0501 | 0.0538 |  |  |  |  |  | 
Q97Y |  |  |  | 0.0487 |  |  |  |  |  | 
Q97R |  |  |  | 0.0545 |  |  |  |  |  | 
Q97N |  | 0.0568 | 0.0711 |  |  |  |  |  |  | 
Q97C |  | 0.0607 |  |  |  |  |  |  |  | 
E195H |  | 0.044 | 0.071 |  |  | 0.0673 | 0.0412 | 0.0588 | 0.0623 | 
M125W | 0.0503 | 0.0545 |  |  |  |  | 0.0602 | 0.049 |  | 
N193M |  |  |  | 0.0524 |  |  |  |  |  | 
N193K |  | 0.0642 |  |  | 0.0308 |  |  |  |  | 
N193C | 0.0684 |  |  |  | 0.0583 |  |  | 0.0627 |  | 
T119S |  |  |  | 0.074 |  |  |  | 0.0545 |  | 0.061
T119L |  | 0.0607 |  |  | 0.0475 |  |  | 0.0521 |  | 

Same assay, conditions: temperature: 34 °C; time window: 0-4 h after rhamnose induction

Variant | area with substrate ENLYFGS | area with substrate ENLYFKS | area with substrate ENLYFVS | area with substrate ENLYFLS | area with substrate ENLYFES | area with substrate ENLYFHS
Q198G | 0.0502 | 0.0813 | 0.0726 |  |  | 
Q198P |  |  | 0.0555 | 0.0551 |  | 
M188R | 0.0538 | 0.0693 |  |  | 0.073 | 
H76G |  | 0.077 |  |  |  | 
G35D |  |  |  |  |  | 0.0741
G35I |  |  | 0.0542 |  |  | 
G8L |  |  |  |  | 0.0492 | 
V78I |  | 0.0505 |  |  |  | 
I85H | 0.0515 |  |  | 0.0561 | 0.0519 | 
E195H |  | 0.0653 |  |  |  | 
N193K |  |  |  |  | 0.0771 | 
